Test results published in PubChem BioAssay AID504832 (National Center for Advancing Translational Sciences (NCATS), 2011).
The campaign covered roughly 310,000 compounds. About 18,000 (5.8%) were called active. This list was built around the results that the source calls inconclusive (neither active nor inactive); the mix of calls is not that of the screen. Calls come from the whole dose curve; as a rule, active = well fitted inhibition curve with a large enough effect; inconclusive = small, poorly fitted or top-dose-only effect, or another doubt; inactive = no such curve, though single readings can be large or run the other way. No potency is given beside an inconclusive call; the fits are too rough.

assay: Primary qHTS for delayed death inhibitors of the malarial parasite plastid, 48 hour incubation; settings: P. falciparum luciferase growth in erythrocytes; series mostly up to 28.7 µM; activity change, negative = inhibition: at the top concentration
How it was run: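 Luminescence readout; reporter = integrated firefly luciferase in P. falciparum. RBC culture at 2% hematocrit, 0.1% parasitemia final, 37 C/5% CO2; decreased signal taken as growth inhibition.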
% is set by controls: 0 for no effect and ±100 for the full control effect; potency is the fitted concentration of half-maximal effect; tags give direction and shape of the fitted curve.

Row | Structure (SMILES) | activity change, negative = inhibition | Potency
1 | O=C(OCc1ccc(Br)cc1)c1cccnc1 | inactive: 3.88% | 
2 | COc1cccc(/C=N/Nc2ccc(Cl)nn2)c1 | inactive: 79.7% | 
3 | O=C(CN1C(=O)CCC1=O)Nc1nc(-c2cccs2)cs1 | inactive: 14.3% | 
4 | COc1cccc(-c2ccc(=O)n(CC(=O)Nc3ccc(S(=O)(=O)NCC(C)C)cc3)n2)c1 |  | inconclusive [inhibitor, single point]
5 | Cc1nc2ncnn2c(N2CCN(C(=O)Cc3cccs3)CC2)c1C |  | inconclusive [inhibitor, single point]
6 | Cc1ccc(C(=O)NCCSc2ccc(Cl)cc2)cc1[N+](=O)[O-] |  | active: 13.1 µM
7 | Cc1cccc(NC(=O)C(C)N2C(=O)C3C4CC(C(Br)C4Br)C3C2=O)c1 (centres undefined) |  | inconclusive [inhibitor, single point]
8 | CCOc1cc(C=C(C(=O)OC)C(=O)OC)ccc1OCc1ccc([N+](=O)[O-])cc1 |  | inconclusive [inhibitor, single point]
9 | Cc1ccc2c(C)nc(SC(C(=O)c3ccccc3)c3ccccc3)nc2c1 (centres undefined) |  | inconclusive [inhibitor, single point]
10 | CCCCOc1ccc(C(O)C(CN2CCCCC2)c2ccccc2)cc1 (centres undefined) |  | inconclusive [inhibitor, partial curve]
11 | COc1ccccc1CCC(=O)OC(C)C(=O)Nc1c(C)n(C)n(-c2ccccc2)c1=O (centres undefined) |  | inconclusive [inhibitor, single point]
12 | Cc1nccc2[nH]c(=O)c(C(=O)NCCCN(C)C3CCCCC3)cc12 | inactive: 6.16% | 
13 | COc1ccc(Nc2nc(N)nc(CN3CCN(c4ccc(F)cc4)CC3)n2)cc1 |  | inconclusive [inhibitor, single point]
14 | CC(=O)NC1(c2cccc(F)c2)CCN(C(=O)Nc2ccc(C#N)cc2)CC1 |  | inconclusive [inhibitor, single point]
15 | COc1cccc(-c2sc3ccc(OC)cc3c2C#CCCO)c1 | inactive: -9.52% | 
16 | COCCn1nnnc1C(c1cc2cc(C)cc(C)c2[nH]c1=O)N1CCN(c2ccccc2F)CC1 (centres undefined) |  | active: 11.7 µM
17 | COc1ccc([N+](=O)[O-])cc1NC(=O)C1(c2ccc(OC)c(OC)c2)CCOCC1 |  | inconclusive [inhibitor, partial curve, poor fit]
18 | CCOc1ccccc1N1CCN(C(=O)c2ccc(Cl)c(S(=O)(=O)N3CCCCC3)c2)CC1 |  | active: 11.7 µM
19 | COc1cc(C(CCN2CCCC(C)C2)c2c(OC)cc(OC)c3c2OC(=O)CC3c2ccc(N(C)C)cc2)cc(OC)c1OC (centres undefined) |  | active: 9.28 µM
